The text below walks through data of the BET-seq Pho4 binding data (Le et al. 2018).

Some of the results follow. Values were computed here from the reads of four pooled replicates and scatter widely.

The target of the assay is T1, Pho4 (S. cerevisiae) (UniProt P07270).
T1 sequence: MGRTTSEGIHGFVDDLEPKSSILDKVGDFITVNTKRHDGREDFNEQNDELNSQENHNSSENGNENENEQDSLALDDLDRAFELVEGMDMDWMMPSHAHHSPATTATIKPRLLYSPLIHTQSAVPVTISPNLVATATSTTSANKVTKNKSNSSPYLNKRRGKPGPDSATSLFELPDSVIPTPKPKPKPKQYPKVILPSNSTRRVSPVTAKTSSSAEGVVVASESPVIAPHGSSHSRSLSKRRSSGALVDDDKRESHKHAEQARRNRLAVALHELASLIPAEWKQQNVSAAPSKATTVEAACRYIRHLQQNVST
As to the kind of experiment: relative binding free energy (BET-seq); higher = weaker binding. As to conditions: reference: library average.
As to TTAATCACGTGTTACG, the “relative binding free energy” value is 0.14 kcal/mol.

On to TTTATCACGTGGGTCA, for which the “relative binding free energy” value is -0.06 kcal/mol. The same measure for TGCATCACGTGGTTTG: 0.13 kcal/mol; for TTACGCACGTGACGGG: 0.08 kcal/mol. The result for AATCTCACGTGGTGGT reads 0.31 kcal/mol; that for AGCAGCACGTGTTGTT, -0.17 kcal/mol; that for TGGGGCACGTGAGGCC, 0.19 kcal/mol. For the sequence TATGACACGTGCGGTA, the “relative binding free energy” value is -0.08 kcal/mol. The same measure for TTGGTCACGTGCATTA: 0.12 kcal/mol.

In the case of ATCGGCACGTGATGAG, the “relative binding free energy” value was 0.1 kcal/mol.

In the case of CTATTCACGTGTATTG, the “relative binding free energy” value came out at 0.16 kcal/mol. The same measure for GTTGGCACGTGCTATA: -0.07 kcal/mol; for TGTAGCACGTGTAATA: 0.01 kcal/mol.

Take TATGGCACGTGTGGCT: the “relative binding free energy” value is -0.05 kcal/mol. The result for TGGGGCACGTGAATTC reads 0.17 kcal/mol; that for GTGGACACGTGCGGGC, 0 kcal/mol; that for TAGTGCACGTGCTTGT, -0.03 kcal/mol. For TTAGTCACGTGGATCG, the “relative binding free energy” value was -0.02 kcal/mol. For GGGTGCACGTGTGGTG, the “relative binding free energy” value was 0.08 kcal/mol.

Take AATGACACGTGGAATG: the “relative binding free energy” value is 0.22 kcal/mol. The result for TGCGCCACGTGTTGGT reads 0.03 kcal/mol; that for GAGGTCACGTGTTAGT, 0.13 kcal/mol. The result for ATTGACACGTGGAGGT reads -0.07 kcal/mol. The same measure for GTAATCACGTGCGGGA: 0.26 kcal/mol; for GTGAACACGTGTAGAG: -0.02 kcal/mol. With GGGAACACGTGTGTTG, the “relative binding free energy” value was 0.08 kcal/mol. Take GGCATCACGTGTTATG: the “relative binding free energy” value was determined as 0.22 kcal/mol. The result for GGTTGCACGTGAAATA reads 0.28 kcal/mol; that for AAGGTCACGTGTCAGA, 0.32 kcal/mol; that for GCTGTCACGTGAGGTA, 0.34 kcal/mol.

As for GTTGGCACGTGGTTAA, the “relative binding free energy” value was -0.14 kcal/mol. AATCACACGTGTAGGG: the “relative binding free energy” value stood at 0.26 kcal/mol. The result for GTAGTCACGTGTTATG reads 0.26 kcal/mol; that for GTTACCACGTGCGGTT, -0.04 kcal/mol. With TTATTCACGTGGTTTG, the “relative binding free energy” value worked out at 0.2 kcal/mol. The same measure for GGTGTCACGTGTATCG: 0.22 kcal/mol; for CGTTTCACGTGAGTAT: 0.35 kcal/mol. As to TATGGCACGTGGATAT, the “relative binding free energy” value was -0.02 kcal/mol. As for TGTACCACGTGTCGGG, the “relative binding free energy” value turned out to be 0.04 kcal/mol. The result for ATGTTCACGTGAGATT reads 0.39 kcal/mol; that for GTGAACACGTGTAAGG, 0.18 kcal/mol.

In the case of TTTATCACGTGTATAA, the “relative binding free energy” value came out at 0.13 kcal/mol. The result for GGGTGCACGTGTAAGC reads 0.11 kcal/mol; that for CGGTTCACGTGGCGGG, 0.15 kcal/mol; that for CAGGTCACGTGGGTGT, -0.01 kcal/mol. The same measure for CTGGGCACGTGAAGAT: 0.11 kcal/mol.

As to TCTGGCACGTGTGGGG, the “relative binding free energy” value is -0.16 kcal/mol. As for GTGTTCACGTGTCTGA, the “relative binding free energy” value is 0.19 kcal/mol.

As for GGATGCACGTGACGGT, the “relative binding free energy” value came to 0.07 kcal/mol. The same measure for AGGCACACGTGATGGT: 0.1 kcal/mol; for ACTGACACGTGGGTGG: -0.22 kcal/mol; for GTGGACACGTGGGAAG: 0.04 kcal/mol. Turning to TTATGCACGTGTATGC, the “relative binding free energy” value turned out to be 0.17 kcal/mol. The result for TAGGCCACGTGAGTAG reads 0.16 kcal/mol.

For the sequence CGTCGCACGTGGTGTA, the “relative binding free energy” value is -0.08 kcal/mol. The same measure for GTGAACACGTGGGTCG: -0.12 kcal/mol; for TTGTGCACGTGATTTT: 0.1 kcal/mol. As for GGGAGCACGTGTAGTA, the “relative binding free energy” value is -0.19 kcal/mol. The same measure for GATTGCACGTGTTGAA: 0.1 kcal/mol.

Turning to GGGCTCACGTGATCGG, the “relative binding free energy” value stood at 0.42 kcal/mol. The same measure for ATTATCACGTGTTTCT: 0.06 kcal/mol. With CGGTTCACGTGGAGTT, the “relative binding free energy” value came to 0.19 kcal/mol. The same measure for GTTTCCACGTGGCGTG: 0.05 kcal/mol; for TCTATCACGTGGTTAG: -0.07 kcal/mol.

TATGACACGTGATTGA: the “relative binding free energy” value turned out to be 0.1 kcal/mol.

With TGTGTCACGTGTGCAC, the “relative binding free energy” value came to 0.02 kcal/mol. The result for AAGATCACGTGTGGTC reads 0.32 kcal/mol. For ATCGTCACGTGGTTAT, the “relative binding free energy” value amounted to 0.02 kcal/mol. The same measure for GGGGGCACGTGTGACG: 0.01 kcal/mol; for GTCGGCACGTGTGGTT: 0.15 kcal/mol. As for TTGGACACGTGGCGTT, the “relative binding free energy” value was -0.1 kcal/mol. The same measure for GATTCCACGTGGTTTT: 0.14 kcal/mol; for ATTGGCACGTGTTGGA: -0.03 kcal/mol. Consider TGTATCACGTGCGGGT, for which the “relative binding free energy” value turned out to be 0.09 kcal/mol. The same measure for AGATTCACGTGGATGA: 0.33 kcal/mol; for AATGTCACGTGCAGTG: 0.08 kcal/mol; for CGGTTCACGTGCGGTA: 0.18 kcal/mol. Regarding GTGTTCACGTGGTAAT, the “relative binding free energy” value came out at 0.19 kcal/mol. For the sequence GTTTGCACGTGAGGAT, the “relative binding free energy” value is 0.32 kcal/mol.

For TATGTCACGTGGCCGG, the “relative binding free energy” value is -0.09 kcal/mol. The same measure for AGGACCACGTGGGCGG: -0.24 kcal/mol; for ATAATCACGTGGGTCT: -0.02 kcal/mol; for TATTGCACGTGGTTTA: -0.11 kcal/mol.

On to GAGGGCACGTGGATGG, for which the “relative binding free energy” value was 0.07 kcal/mol. For CGTGGCACGTGTGGAC, the “relative binding free energy” value is 0.1 kcal/mol. The same measure for ATAATCACGTGGAGGC: 0.21 kcal/mol; for AGCGCCACGTGGGGGG: -0.41 kcal/mol; for TTTAACACGTGGCATT: -0.09 kcal/mol. The result for GTCGTCACGTGATAGT reads 0.13 kcal/mol.

As to GTGTCCACGTGGTGAG, the “relative binding free energy” value is -0.03 kcal/mol.

For the sequence TGCTGCACGTGTATGA, the “relative binding free energy” value came out at 0.09 kcal/mol. The result for GGGTTCACGTGCCAGG reads 0.19 kcal/mol; that for TGTCACACGTGGAGGG, -0.02 kcal/mol; that for TTGGGCACGTGTTGGA, 0.04 kcal/mol.

In the case of GTTGGCACGTGAGCGG, the “relative binding free energy” value was 0.07 kcal/mol. The same measure for AGCGTCACGTGTAAAG: 0.14 kcal/mol; for ATGGTCACGTGAATTA: 0.42 kcal/mol. The same measure for GTGGCCACGTGCTTGG: -0.17 kcal/mol; for GGGTACACGTGTTAGC: 0.07 kcal/mol; for TTATGCACGTGGGGGC: -0.12 kcal/mol. The same measure for TGGTACACGTGGTTGC: 0.22 kcal/mol. Regarding TTTCGCACGTGGTTCG, the “relative binding free energy” value was -0.12 kcal/mol. The result for ATGTACACGTGGTAAA reads 0.05 kcal/mol; that for GAATGCACGTGGGTCT, -0.09 kcal/mol; that for TTAAACACGTGGTGCT, -0.06 kcal/mol.

Consider TCCGACACGTGTTGGT, for which the “relative binding free energy” value was 0.3 kcal/mol. The result for TCTGACACGTGGTCGT reads 0.02 kcal/mol. As for GTGGTCACGTGGAGGT, the “relative binding free energy” value was 0.17 kcal/mol. The same measure for GGAGTCACGTGGTGCG: 0.13 kcal/mol. As to TCTTGCACGTGCTTGT, the “relative binding free energy” value is -0.01 kcal/mol. The same measure for ATATTCACGTGTTACG: 0.19 kcal/mol; for GGGAACACGTGTGGGA: 0.07 kcal/mol; for TAGGTCACGTGGTCTT: 0.01 kcal/mol.

As to GGTAGCACGTGCGGTA, the “relative binding free energy” value was 0.02 kcal/mol.

For the sequence GGAAGCACGTGTCGTG, the “relative binding free energy” value is -0.15 kcal/mol.
